Reference: paper PMC7454948
Substitutions are numbered along the chain they refer to. These are yes or no findings as the source states them, for the method shown. Binding seen in cells or lysates may run through a third protein. Some entries that bind do so weakly or less than the wild type. Where a sequence is shown, tags or fusion partners need not be part of it.

How the values were obtained:
[1] = molecular target: T1, GST-Sgo1 101–200 (S. cerevisiae) (UniProt Q08490); test: pull-down; GST-Sgo1 proteins (100 ug) on glutathione magnetic beads, rotated with yeast lysate 2 h at 4°C; eluates immunoblotted with anti-FLAG (Ycg1), anti-HA (Smc2), anti-MYC (Rts1); only the target purified
T1 sequence: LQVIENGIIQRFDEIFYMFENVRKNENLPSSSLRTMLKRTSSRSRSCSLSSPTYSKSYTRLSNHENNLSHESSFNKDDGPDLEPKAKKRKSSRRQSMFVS

[2] = molecular target: T2, GST-Sgo1 137–163 (S. cerevisiae); test: as above
T2 sequence: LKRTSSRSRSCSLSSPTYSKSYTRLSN

[3] = molecular target: T3, GST-Sgo1 1–163 (S. cerevisiae) (UniProt Q08490); test: as above
T3 sequence: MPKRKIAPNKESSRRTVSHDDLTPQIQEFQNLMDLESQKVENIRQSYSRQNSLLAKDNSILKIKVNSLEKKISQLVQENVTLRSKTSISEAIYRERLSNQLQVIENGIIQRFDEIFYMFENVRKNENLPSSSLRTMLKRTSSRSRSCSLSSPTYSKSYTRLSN

[4] = molecular target: T4, GST-Sgo1 N51I (S. cerevisiae) (UniProt Q08490); test: as above
T4 sequence: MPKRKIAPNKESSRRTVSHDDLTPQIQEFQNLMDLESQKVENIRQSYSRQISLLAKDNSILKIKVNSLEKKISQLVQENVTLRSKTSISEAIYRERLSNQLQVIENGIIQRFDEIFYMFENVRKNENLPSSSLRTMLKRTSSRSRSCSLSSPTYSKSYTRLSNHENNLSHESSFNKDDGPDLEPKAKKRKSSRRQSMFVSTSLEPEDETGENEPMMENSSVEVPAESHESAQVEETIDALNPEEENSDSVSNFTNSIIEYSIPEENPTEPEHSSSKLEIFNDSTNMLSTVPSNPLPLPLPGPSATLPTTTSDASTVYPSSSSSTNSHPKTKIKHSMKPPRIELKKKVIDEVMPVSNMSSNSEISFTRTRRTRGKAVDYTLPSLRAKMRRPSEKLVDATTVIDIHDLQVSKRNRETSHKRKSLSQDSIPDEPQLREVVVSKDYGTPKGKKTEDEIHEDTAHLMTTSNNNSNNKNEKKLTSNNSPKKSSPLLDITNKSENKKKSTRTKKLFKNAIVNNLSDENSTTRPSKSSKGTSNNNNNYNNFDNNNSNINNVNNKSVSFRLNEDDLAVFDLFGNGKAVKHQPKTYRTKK

[5] = molecular target: T5, GST-Sgo1wt (full length Sgo1-GST) (S. cerevisiae) (UniProt Q08490); test: as above
T5 sequence: T4 sequence with I51N

Brn1-GFP (S. cerevisiae) = molecular target: T6, Brn1-GFP (S. cerevisiae) (UniProt P38170); test: co-IP; GFP-Trap agarose beads, yeast lysates in native lysis buffer (20 mM HEPES pH 7.5, 0.5% Triton X-100, 200 mM NaCl), 2 hours at 4°C; Smc2-GFP or Brn1-GFP pulled down, Sgo1-TAP detected with PAP
T6 sequence: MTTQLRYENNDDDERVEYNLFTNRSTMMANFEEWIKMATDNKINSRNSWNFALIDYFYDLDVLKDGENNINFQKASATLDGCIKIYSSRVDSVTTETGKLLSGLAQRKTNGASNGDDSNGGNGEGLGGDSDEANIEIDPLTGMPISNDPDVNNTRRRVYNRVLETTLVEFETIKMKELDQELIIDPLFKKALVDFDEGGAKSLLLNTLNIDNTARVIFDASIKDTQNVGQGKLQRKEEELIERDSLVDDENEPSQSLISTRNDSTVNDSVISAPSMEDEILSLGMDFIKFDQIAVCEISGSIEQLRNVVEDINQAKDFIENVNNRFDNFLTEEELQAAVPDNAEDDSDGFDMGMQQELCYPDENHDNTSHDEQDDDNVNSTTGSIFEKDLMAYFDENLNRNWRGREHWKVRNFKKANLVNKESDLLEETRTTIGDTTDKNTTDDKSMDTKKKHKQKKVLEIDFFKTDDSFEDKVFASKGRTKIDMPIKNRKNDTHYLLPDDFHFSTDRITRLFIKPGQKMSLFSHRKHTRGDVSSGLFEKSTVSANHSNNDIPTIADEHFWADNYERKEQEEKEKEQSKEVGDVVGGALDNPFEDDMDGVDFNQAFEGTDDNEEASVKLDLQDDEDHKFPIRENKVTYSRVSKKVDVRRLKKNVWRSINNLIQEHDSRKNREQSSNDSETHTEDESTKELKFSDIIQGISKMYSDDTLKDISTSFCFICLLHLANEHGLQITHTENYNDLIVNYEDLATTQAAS

Smc2-GFP (S. cerevisiae) = molecular target: T7, Smc2-GFP (S. cerevisiae) (UniProt P38989); test: as above
T7 sequence: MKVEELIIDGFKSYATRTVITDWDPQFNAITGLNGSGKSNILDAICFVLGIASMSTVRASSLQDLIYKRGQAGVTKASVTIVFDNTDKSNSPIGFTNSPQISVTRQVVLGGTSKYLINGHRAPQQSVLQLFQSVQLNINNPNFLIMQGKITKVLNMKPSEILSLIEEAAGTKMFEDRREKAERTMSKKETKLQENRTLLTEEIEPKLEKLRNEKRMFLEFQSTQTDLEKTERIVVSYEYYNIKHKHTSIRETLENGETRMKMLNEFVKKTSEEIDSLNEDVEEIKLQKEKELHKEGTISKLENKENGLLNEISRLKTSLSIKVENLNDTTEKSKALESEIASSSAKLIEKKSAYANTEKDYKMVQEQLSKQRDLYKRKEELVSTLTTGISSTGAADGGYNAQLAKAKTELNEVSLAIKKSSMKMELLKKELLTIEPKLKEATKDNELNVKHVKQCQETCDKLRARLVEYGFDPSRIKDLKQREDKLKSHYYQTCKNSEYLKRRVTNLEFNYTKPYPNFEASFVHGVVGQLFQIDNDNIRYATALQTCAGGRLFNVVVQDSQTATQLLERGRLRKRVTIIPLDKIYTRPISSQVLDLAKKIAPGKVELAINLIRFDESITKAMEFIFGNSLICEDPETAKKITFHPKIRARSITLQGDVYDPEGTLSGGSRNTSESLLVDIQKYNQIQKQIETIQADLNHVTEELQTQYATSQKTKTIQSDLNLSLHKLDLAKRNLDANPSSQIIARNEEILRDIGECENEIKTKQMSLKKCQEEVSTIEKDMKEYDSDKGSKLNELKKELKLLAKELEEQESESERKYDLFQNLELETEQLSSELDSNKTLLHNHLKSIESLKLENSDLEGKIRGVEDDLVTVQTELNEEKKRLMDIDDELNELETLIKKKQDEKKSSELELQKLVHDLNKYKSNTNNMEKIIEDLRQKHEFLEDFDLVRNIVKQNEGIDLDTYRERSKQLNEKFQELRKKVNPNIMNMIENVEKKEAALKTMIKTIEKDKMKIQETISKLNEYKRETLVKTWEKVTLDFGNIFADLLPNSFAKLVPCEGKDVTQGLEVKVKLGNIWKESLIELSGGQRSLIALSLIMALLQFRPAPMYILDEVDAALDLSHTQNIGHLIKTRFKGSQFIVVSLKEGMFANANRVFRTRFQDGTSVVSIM

B1: Ycg1-3FLAG (protein, UniProt Q06680 1-1035)
chain: MQDPDGIDINTKIFNSVAEVFQKAQGSYAGHRKHIAVLKKIQSKAVEQGYEDAFNFWFDKLVTKILPLKKNEIIGDRIVKLVAAFIASLERELILAKKQNYKLTNDEEGIFSRFVDQFIRHVLRGVESPDKNVRFRVLQLLAVIMDNIGEIDESLFNLLILSLNKRIYDREPTVRIQAVFCLTKFQDEEQTEHLTELSDNEENFEATRTLVASIQNDPSAEVRRAAMLNLINDNNTRPYILERARDVNIVNRRLVYSRILKSMGRKCFDDIEPHIFDQLIEWGLEDRELSVRNACKRLIAHDWLNALDGDLIELLEKLDVSRSSVCVKAIEALFQSRPDILSKIKFPESIWKDFTVEIAFLFRAIYLYCLDNNITEMLEENFPEASKLSEHLNHYILLRYHHNDISNDSQSHFDYNTLEFIIEQLSIAAERYDYSDEVGRRSMLTVVRNMLALTTLSEPLIKIGIRVMKSLSINEKDFVTMAIEIINDIRDDDIEKQEQEEKIKSKKINRRNETSVDEEDENGTHNDEVNEDEEDDNISSFHSAVENLVQGNGNVSESDIINNLPPEKEASSATIVLCLTRSSYMLELVNTPLTENILIASLMDTLITPAVRNTAPNIRELGVKNLGLCCLLDVKLAIDNMYILGMCVSKGNASLKYIALQVIVDIFSVHGNTVVDGEGKVDSISLHKIFYKVLKNNGLPECQVIAAEGLCKLFLADVFTDDDLFETLVLSYFSPINSSNEALVQAFAFCIPVYCFSHPAHQQRMSRTAADILLRLCVLWDDLQSSVIPEVDREAMLKPNIIFQQLLFWTDPRNLVNQTGSTKKDTVQLTFLIDVLKIYAQIEKKEIKKMIITNINAIFLSSEQDYSTLKELLEYSDDIAENDNLDNVSKNALDKLRNNLNSLIEEINERSETQTKDENNTANDQYSSILGNSFNKSSNDTIEHAADITDGNNTELTKTTVNISAVDNTTEQSNSRKRTRSEAEQIDTSKNLENMSIQDTSTVAKNVSFVLPDEKSDAMSIDEEDKDSESFSEVC
binding [1]: no binding | binding [2]: no binding | binding [3]: binds | binding [4]: binds | binding [5]: binds

B2: Sgo1-13E (TAP-tagged, in yeast) (protein, UniProt Q08490 1-590)
chain: MPKRKIAPNKESSRRTVSHDDLTPQIQEFQNLMDLESQKVENIRQSYSRQNSLLAKDNSILKIKVNSLEKKISQLVQENVTLRSKTSISEAIYRERLSNQLQVIENGIIQRFDEIFYMFENVRKNENLPSSSLRTMLKREEERERECELEEPEYEKEYERLENHENNLSHESSFNKDDGPDLEPKAKKRKSSRRQSMFVSTSLEPEDETGENEPMMENSSVEVPAESHESAQVEETIDALNPEEENSDSVSNFTNSIIEYSIPEENPTEPEHSSSKLEIFNDSTNMLSTVPSNPLPLPLPGPSATLPTTTSDASTVYPSSSSSTNSHPKTKIKHSMKPPRIELKKKVIDEVMPVSNMSSNSEISFTRTRRTRGKAVDYTLPSLRAKMRRPSEKLVDATTVIDIHDLQVSKRNRETSHKRKSLSQDSIPDEPQLREVVVSKDYGTPKGKKTEDEIHEDTAHLMTTSNNNSNNKNEKKLTSNNSPKKSSPLLDITNKSENKKKSTRTKKLFKNAIVNNLSDENSTTRPSKSSKGTSNNNNNYNNFDNNNSNINNVNNKSVSFRLNEDDLAVFDLFGNGKAVKHQPKTYRTKK
binding (Brn1-GFP (S. cerevisiae)): no binding | binding (Smc2-GFP (S. cerevisiae)): no binding
